According to the supplement of paper PMC9151546:
Most values come without repeats; read them as rough.

Key:
CHO-K1 [1] = test: micronucleus frequency (% of nucleated events); higher = more micronuclei (genotoxic)
CHO-K1 [2] = test: hypodiploid nuclei frequency (% of nucleated events); higher = more hypodiploid events (aneugenic)
Experimental: (§1)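 Flow-cytometric in vitro micronucleus assay (Litron MicroFlow) in CHO-K1 cells in 96-well plates, 19 concentrations (4.5-200 µM, n=1 per concentration). Without S9, cells were exposed for 24 h and sampled at 48 h. With Aroclor 1254-induced rat liver S9, cells were exposed for 3-4 h and sampled at 27-28 h. Read-outs are %MN and %hypodiploid nuclei relative to nucleated events, and relative survival as the nuclei-to-bead ratio versus the 1% DMSO vehicle control (x100).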

CHO-K1 [3] = test: relative survival (nuclei to bead ratio vs DMSO control) (% of vehicle control); higher = more surviving cells
Experimental: as §1
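Throughout, for hypodiploid nuclei frequency (% of nucleated events): hypodiploid nuclei gated on a flow cytometer with 488 nm excitation after SYTOX Green staining, cultures at 37 °C, positive controls vinblastine without S9 and cyclophosphamide with S9.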
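Throughout, for micronucleus frequency (% of nucleated events): cells lysed with nuclei stained by SYTOX Green, then micronucleus-gated events counted against nucleated events by flow cytometry with 488 nm excitation.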
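Throughout, for relative survival (nuclei to bead ratio vs DMSO control): Lysed-cell nuclei stained with SYTOX Green and counted against counting beads by flow cytometry at 488 nm excitation, with vinblastine (no S9) and cyclophosphamide (plus S9) as positive controls.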

ClC1=C(Cl)C2(Cl)C3C4OC4C(Cl)C3C1(Cl)C2(Cl)Cl (stereo not drawn) [Heptachlor epoxide]
Conditions | hypodiploid nuclei frequency, CHO-K1 [2] [%] | micronucleus frequency, CHO-K1 [1] [%] | relative survival, CHO-K1 [3]
concentration: 4.5 (µM), S9 metabolic activation: with S9, exposure time: 3-4 hours | 0.2 | 0.9 | 116
concentration: 4.5 (µM), S9 metabolic activation: without S9, exposure time: 24 hours | 0.56 | 1.14 | 133
concentration: 5.63 (µM), S9 metabolic activation: with S9, exposure time: 3-4 hours | 0.16 | 1.14 | 120
concentration: 5.63 (µM), S9 metabolic activation: without S9, exposure time: 24 hours | 0.5 | 1.52 | 108
concentration: 7.04 (µM), S9 metabolic activation: with S9, exposure time: 3-4 hours | 0.1 | 0.92 | 123
concentration: 7.04 (µM), S9 metabolic activation: without S9, exposure time: 24 hours | 0.54 | 1.34 | 117
concentration: 8.8 (µM), S9 metabolic activation: with S9, exposure time: 3-4 hours | 0.18 | 0.84 | 99.9
concentration: 8.8 (µM), S9 metabolic activation: without S9, exposure time: 24 hours | 0.6 | 1.08 | 102
concentration: 11 (µM), S9 metabolic activation: with S9, exposure time: 3-4 hours | 0.14 | 1 | 108
concentration: 11 (µM), S9 metabolic activation: without S9, exposure time: 24 hours | 0.84 | 1.02 | 126
concentration: 13.7 (µM), S9 metabolic activation: with S9, exposure time: 3-4 hours | 0.14 | 1.04 | 94.9
concentration: 13.7 (µM), S9 metabolic activation: without S9, exposure time: 24 hours | 0.44 | 1.42 | 112
concentration: 17.2 (µM), S9 metabolic activation: with S9, exposure time: 3-4 hours | 0.22 | 1.1 | 102
concentration: 17.2 (µM), S9 metabolic activation: without S9, exposure time: 24 hours | 0.76 | 1.66 | 120
concentration: 21.5 (µM), S9 metabolic activation: with S9, exposure time: 3-4 hours | 0.14 | 1.14 | 97.3
concentration: 21.5 (µM), S9 metabolic activation: without S9, exposure time: 24 hours | 0.56 | 1.26 | 89.4
concentration: 26.8 (µM), S9 metabolic activation: with S9, exposure time: 3-4 hours | 0.04 | 0.74 | 107
concentration: 26.8 (µM), S9 metabolic activation: without S9, exposure time: 24 hours | 0.86 | 1.76 | 95.5
concentration: 33.6 (µM), S9 metabolic activation: with S9, exposure time: 3-4 hours | 0.2 | 0.82 | 103
concentration: 33.6 (µM), S9 metabolic activation: without S9, exposure time: 24 hours | 1.08 | 1.88 | 106
concentration: 41.9 (µM), S9 metabolic activation: with S9, exposure time: 3-4 hours | 0.14 | 1.08 | 92
concentration: 41.9 (µM), S9 metabolic activation: without S9, exposure time: 24 hours | 1.06 | 1.98 | 99.4
concentration: 52.4 (µM), S9 metabolic activation: with S9, exposure time: 3-4 hours | 0.14 | 2.72 | 98
concentration: 52.4 (µM), S9 metabolic activation: without S9, exposure time: 24 hours | 1.58 | 2.34 | 87
concentration: 65.5 (µM), S9 metabolic activation: with S9, exposure time: 3-4 hours | 0.2 | 1.48 | 99.7
concentration: 65.5 (µM), S9 metabolic activation: without S9, exposure time: 24 hours | 2.5 | 2.84 | 86.2
concentration: 81.9 (µM), S9 metabolic activation: with S9, exposure time: 3-4 hours | 0.22 | 1.04 | 87.3
concentration: 81.9 (µM), S9 metabolic activation: without S9, exposure time: 24 hours | 2.06 | 2.7 | 69.1
concentration: 102 (µM), S9 metabolic activation: with S9, exposure time: 3-4 hours | 0.24 | 1.52 | 90.6
concentration: 102 (µM), S9 metabolic activation: without S9, exposure time: 24 hours | 2.22 | 2.76 | 82.6
concentration: 128 (µM), S9 metabolic activation: with S9, exposure time: 3-4 hours | 0.26 | 1.26 | 84.5
concentration: 128 (µM), S9 metabolic activation: without S9, exposure time: 24 hours | 2.24 | 2.56 | 70.3
concentration: 160 (µM), S9 metabolic activation: with S9, exposure time: 3-4 hours | 0.24 | 1.34 | 80.5
concentration: 160 (µM), S9 metabolic activation: without S9, exposure time: 24 hours | 1.78 | 2.3 | 79.5
concentration: 200 (µM), S9 metabolic activation: with S9, exposure time: 3-4 hours | 0.2 | 2.08 | 76.5
concentration: 200 (µM), S9 metabolic activation: without S9, exposure time: 24 hours | 2.14 | 1.94 | 65.8
